# Results from ChEMBL document CHEMBL4888484, “Replenishing the malaria drug discovery pipeline: Screening and hit evaluation of the MMV Hit Generation Library 1 (HGL1) against asexual blood stage Plasmodium falciparum ,using a nano luciferase reporter read-out” (2022).
# About 540 (0.36%) of roughly 150,000 compounds showed an effect of 50% or more. The list shows a part of the results.
# System: Plasmodium falciparum
# Assay: Primary screen in NF54 nanoGlo assay, in single point, at 2uM, 72h; a lower Z score goes with more inhibition
# Assay type: functional, Erythrocyte
# Details: timepoint 72 hour
Structure (SMILES),% Inhibition [%],Z score
CC1CCCCC1NC(=O)CN(C)CCO (stereo unspecified),-8,1.47
CC1(C)CC(=O)c2cn(-c3ccc(Cl)cc3)c(=O)c(C(=O)NCCN3CCOCC3)c2C1,-13,1.42
Cc1[nH]c(=O)[nH]c(=O)c1-c1cccc(C(=O)NCCCN2CCCC2=O)c1,-6,1.3
COc1cccc(-c2cc3c(N4CCN(c5ncccn5)CC4)nccn3n2)c1,5,-0.59
COc1cccc(C2(C(=O)N3CCCO[C@@H](CN)C3)CCCC2)c1,-1,0.15
COc1ccc(OC)c(C(=O)N2CC[C@H](C(=O)Nc3cn[nH]c3)C2)c1,-2,0.36
CC(C)c1noc(C(C)N2CCN(C3CCOC3=O)CC2)n1 (stereo unspecified),-14,2.32
CCCNC(=O)CNC(=O)C(=O)c1ccc(C(C)(C)C)cc1,-3,0.32
N#Cc1cc2n(n1)CCN(CC1=CCCCC1)C2,-10,1.9
Cc1nn(C)c2ncnc(N(C)Cc3cc(C(C)C)on3)c12,0,0.04
NC(=NCc1ccc(Cl)cn1)N1CCN(c2nccs2)CC1,-4,0.42
Cc1ccc(NC(=O)c2cc(N3CC(C)OC(C)C3)ccn2)cn1 (stereo unspecified),0,0.03
N#Cc1cc(Cl)ccc1CN1C(=O)CC2(CCC2)C1=O,-8,0.71
CS(=O)(=O)C1(c2nc(C3CCCCC3)no2)CCCC1,-10,1.28
Nc1nc2c(s1)CCN(Cc1ccccc1)C2,-9,1.29
O=S(=O)(N[C@H]1CCc2nnc(-c3ccc(F)cc3)n2C1)N1CCCCC1,34,-0.62
COCCN1CCN(CC2=Nc3ccccc3S(=O)(=O)N2)CC1,-10,1.96
CC(C(=O)Nc1nccs1)N1CCOC(c2nccs2)C1 (stereo unspecified),-8,0.96
CC(C)n1cnnc1CC1CN(C(=O)Nc2ccc(Cl)cc2C(F)(F)F)C1,1,-0.12
CCn1nc(C(=O)N2C[C@@H]3CC[C@H]2CN(Cc2[nH]cnc2C)C3)cc1C,-6,0.59
O=C(C1CCOCC1)N1CC[C@H](C2CCCCC2)C1,-9,0.98
O[C@@H]1COCCN(c2nc3ccc(Cl)cc3s2)C1,-7,0.74

Structure (SMILES),% Inhibition [%],Z score
CC(=O)N1CCc2cc(S(=O)(=O)N3CCCc4cc(F)cc(C)c43)ccc21,-5,0.76
CCOc1ccccc1CN1CCn2nc(CN3C[C@H]4CCC[C@@H]3C4)cc2C1,-8,0.98
CC(C)N(C1CC1)S(=O)(=O)CCC(C)(C)C#N,-25,2.98
CC1(C#N)CN(S(=O)(=O)c2cccc(N)c2)C1,8,-1.01
Cc1sc(NC(=O)C(c2ccccc2)c2ccccc2)nc1-c1ccccc1,-8,1.01
COc1ccc([C@H](C(N)=O)c2cnnc3cc(OC)c(OC)cc23)cc1OC,-2,0.21
Cc1nc(-c2nnc[nH]2)sc1C(=O)Nc1nnc(C(C)C)s1,2,-0.27
O[C@H]1C[C@@H]2CN(c3noc(-c4ccccc4)n3)C[C@@H]2C[C@@H]1O,2,-0.43
C[C@@H]1Oc2ccc(NC(=O)c3ccc(F)cc3F)cc2CN(CCc2ccc(F)cc2)C1=O,-14,1.6
COCCN1C(=O)CC[C@@H](C(=O)N(C)Cc2cccnc2)[C@H]1C,-9,1.21
CC(=O)N(C(C)=O)c1nc(C)cc(-n2nc(-c3ccc(F)cc3)cc2C(F)(F)F)n1,-5,0.65
CCOc1ccc(CNC(=O)C2CN(c3cc(-n4cccn4)ncn3)C2)cn1,-9,1.6
Cc1cc(Br)cc(S(=O)(=O)N(C)C)c1,-6,0.78
O=C(Nc1cccc(OC(F)F)c1)N[C@H]1COC[C@@H]1N1CCCC1,7,-1.4
Cn1cnc2c1CCN(C(=O)c1ccc(CO)cc1)C2,2,-0.29
COC(=O)c1sc(N)nc1C1CCCC1,-4,0.46
CC(=O)N(c1ccc(F)cc1)C1CCCC1,0,-0.02
Cc1ccc(OCc2cccc(C(=O)N3CCC[C@@H]3CN3CCCCC3)c2)cn1,39,-1.15
CCCC(CCC)N1CCC(CO)CC1,-4,0.43
Cc1c(C(c2ccc(-c3ccc(Br)cc3)o2)c2c(C)n(C)n(-c3ccccc3)c2=O)c(=O)n(-c2ccccc2)n1C,-10,1.83
O=C(N[C@@H](Cc1ccccc1)c1ccccc1)c1nc(CCc2ccccc2)n(-c2ccccc2)n1,-2,0.33
